Experimental findings from the supplement of paper PMC3334620 are described below.

Over roughly 33,000 sequences, “E-score (-0.5 to 0.5)” has its median near -0.043; the highest 2% begin near 0.37. The list shows a part of the results.

For the test, the target named is T1, Upc2 (UniProt Q12151).
T1 sequence: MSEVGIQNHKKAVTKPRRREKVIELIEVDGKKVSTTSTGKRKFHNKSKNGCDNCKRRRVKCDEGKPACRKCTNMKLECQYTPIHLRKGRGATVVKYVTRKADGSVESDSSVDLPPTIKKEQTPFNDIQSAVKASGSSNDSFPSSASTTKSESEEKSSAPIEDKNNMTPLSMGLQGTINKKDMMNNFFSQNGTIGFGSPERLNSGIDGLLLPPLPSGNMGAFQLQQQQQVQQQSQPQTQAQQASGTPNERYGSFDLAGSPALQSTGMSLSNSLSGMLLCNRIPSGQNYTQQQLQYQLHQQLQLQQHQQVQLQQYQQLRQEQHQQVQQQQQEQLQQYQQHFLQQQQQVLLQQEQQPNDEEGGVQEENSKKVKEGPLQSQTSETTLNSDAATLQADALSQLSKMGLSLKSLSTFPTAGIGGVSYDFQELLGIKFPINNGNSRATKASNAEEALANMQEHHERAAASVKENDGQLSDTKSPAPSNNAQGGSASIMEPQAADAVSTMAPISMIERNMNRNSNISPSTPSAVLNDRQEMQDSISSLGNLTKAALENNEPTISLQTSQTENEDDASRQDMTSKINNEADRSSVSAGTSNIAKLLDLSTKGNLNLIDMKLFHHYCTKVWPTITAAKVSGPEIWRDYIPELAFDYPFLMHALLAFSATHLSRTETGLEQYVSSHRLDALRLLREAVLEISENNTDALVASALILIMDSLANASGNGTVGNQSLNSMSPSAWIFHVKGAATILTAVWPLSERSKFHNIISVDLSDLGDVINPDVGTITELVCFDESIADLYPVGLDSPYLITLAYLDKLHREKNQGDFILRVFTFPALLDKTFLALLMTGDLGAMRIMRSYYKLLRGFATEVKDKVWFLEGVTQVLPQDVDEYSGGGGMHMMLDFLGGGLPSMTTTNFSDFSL
In words: PBM E-score (8-mer binding enrichment) (E-score (-0.5 to 0.5)); higher = stronger / more preferred TF binding; most listed sequences are background and not binding sites. Particulars: protein concentration: 200 nM; construct: GST-full length. On the procedure: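 Universal 'all 10-mer' protein binding microarrays (Agilent AMADID 015681) probed with GST-tagged S. cerevisiae TFs (full-length or DBD) made by in vitro transcription/translation (PURExpress), about 100-200 nM. Bound TF was detected with fluorescent anti-GST. Each ungapped 8-mer (which stands for itself and its reverse complement) is scored by the PBM enrichment score (E-score), a modified Wilcoxon-Mann-Whitney statistic from -0.5 to +0.5, computed with the Universal PBM Analysis Suite. Scale: above 0.35 generally sequence-specific binding.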
Consider GGATGACA, for which the “PBM E-score” value was -0.0406.
For the sequence ATCCAAGG, the “PBM E-score” value was -0.255.
Regarding CTTAGTTA, the “PBM E-score” value is -0.0101.
On to ACAGTCGG, for which the “PBM E-score” value is -0.0363.
For TAACACGA the value was 0.177; for AGTCCTAA, -0.022; for ACTCTGTG, -0.00359.
Regarding CCACATCA, the “PBM E-score” value was -0.125.
With AACCCCGG, the “PBM E-score” value amounted to 0.00566.
For ATGGATTC the value was -0.116.
Take ACCCCTGA: the “PBM E-score” value is -0.07.
With AAGGTCAT, the “PBM E-score” value is -0.0585.
On to CGGTGCCC, for which the “PBM E-score” value was -0.119.
In the case of AATTGAGT it was -0.0417.
CTGTAACA: the “PBM E-score” value was -0.134.
Regarding AAAAAAGT, the “PBM E-score” value was 0.102.
As to ACTATCGG, the “PBM E-score” value was -0.0107.
For the sequence CAATGTCA, the “PBM E-score” value amounted to 0.0141.
Take CTTCCGTA: the “PBM E-score” value was 0.311.
ACGTAATC: the “PBM E-score” value amounted to 0.0625.
For TCACGGCA, the “PBM E-score” value is -0.167.
For the sequence CCGAGGCG, the “PBM E-score” value amounted to 0.129.
In the case of AGTGACGG it was -0.228.
For ACTTTGCC the value was -0.0954; for AGAGAAAA, -0.104.
Consider ATTGGACG, for which the “PBM E-score” value was -0.0372.
With GTATATAA, the “PBM E-score” value amounted to 0.298.
In the case of GTCAGTGA it was -0.0712; in that of TCCGATCA, -0.017; in that of ACATATAT, 0.0896.
With ACGACGGC, the “PBM E-score” value was 0.333.
For the sequence CACTACGG, the “PBM E-score” value was -0.133.
With AGTGTTTA, the “PBM E-score” value worked out at 0.0568.
With CAGCTGCC, the “PBM E-score” value is -0.218.
In the case of AGCCAAGA, the “PBM E-score” value is -0.159.
In the case of CCCTTTGC it was -0.00867.
For the sequence ATTTCGGC, the “PBM E-score” value stood at 0.00601.
In the case of ATTTAAAT it was 0.0767; in that of GGATTGCC, -0.0654.
In the case of ATGACTCG it was 0.0492; in that of ACACGAGC, 0.273.
For ACAATCCA the value was -0.0823; for AACTTAGC, -0.171.
As for AGATAAAG, the “PBM E-score” value was -0.0496.
For CATTCGCG the value was 0.128; for CGACGGGC, 0.152; for CTAACGGC, -0.0778.
As for CAAGCATG, the “PBM E-score” value was -0.098.
For CAATTCAA the value was -0.0733; for ACCTTAAT, -0.139.
Consider AATCGGGC, for which the “PBM E-score” value is -0.0317.
With CTAGTACC, the “PBM E-score” value was -0.148.
In the case of GTAGGATA it was -0.0462; in that of ACGAGAAG, 0.277; in that of AATCCACG, -0.0217.
Consider TAAGCATA, for which the “PBM E-score” value turned out to be 0.155.
For ATGAAGTC the value was -0.149; for CAGTCCAA, -0.285.
In the case of ACACGAGA it was 0.244; in that of ATGGGCCA, -0.0834.
For AATATAAC the value was 0.0166.
AAATGGTT: the “PBM E-score” value is -0.00064.
Take CGCCCGAC: the “PBM E-score” value was -0.034.
In the case of AGCGGACA it was 0.0699; in that of ACATAAAC, 0.233.
For AATAAACC, the “PBM E-score” value is 0.0364.
For the sequence ATTAACGC, the “PBM E-score” value stood at 0.143.
In the case of TCGCCAGA it was -0.147; in that of AGACAGCA, -0.0983; in that of CATACTCG, 0.238.
For ACCGAAAG the value was 0.108; for AAGTGTTA, -0.0352.
Regarding TACTACAA, the “PBM E-score” value was 0.0682.
With ACGTGATA, the “PBM E-score” value is 0.0836.
In the case of AAAAAAGA, the “PBM E-score” value was -0.107.
Turning to CTACTCGA, the “PBM E-score” value was 0.165.
For TCACCGAA the value was -0.117; for AATTAGCA, 0.0793.
Take GGTGTCTA: the “PBM E-score” value was -0.0324.
Turning to AGGGTAGC, the “PBM E-score” value was -0.213.
For GGGTGAAA the value was -0.159; for AGATTAAG, -0.119.
For AGTCGACG the value was 0.0955; for ATTAACTC, -0.021; for TGGCGCAA, 0.0234.
For GCCGTGAA the value was -0.0188.
